PMC10320511
These are yes or no findings as the source states them, for the method shown. Binding seen in cells or lysates may run through a third protein. Some entries that bind do so weakly or less than the wild type. Tags and fused reporters may be left off the sequences shown.

Amino acid sequences for entries named in this document (tags omitted).
UniProt Q01371: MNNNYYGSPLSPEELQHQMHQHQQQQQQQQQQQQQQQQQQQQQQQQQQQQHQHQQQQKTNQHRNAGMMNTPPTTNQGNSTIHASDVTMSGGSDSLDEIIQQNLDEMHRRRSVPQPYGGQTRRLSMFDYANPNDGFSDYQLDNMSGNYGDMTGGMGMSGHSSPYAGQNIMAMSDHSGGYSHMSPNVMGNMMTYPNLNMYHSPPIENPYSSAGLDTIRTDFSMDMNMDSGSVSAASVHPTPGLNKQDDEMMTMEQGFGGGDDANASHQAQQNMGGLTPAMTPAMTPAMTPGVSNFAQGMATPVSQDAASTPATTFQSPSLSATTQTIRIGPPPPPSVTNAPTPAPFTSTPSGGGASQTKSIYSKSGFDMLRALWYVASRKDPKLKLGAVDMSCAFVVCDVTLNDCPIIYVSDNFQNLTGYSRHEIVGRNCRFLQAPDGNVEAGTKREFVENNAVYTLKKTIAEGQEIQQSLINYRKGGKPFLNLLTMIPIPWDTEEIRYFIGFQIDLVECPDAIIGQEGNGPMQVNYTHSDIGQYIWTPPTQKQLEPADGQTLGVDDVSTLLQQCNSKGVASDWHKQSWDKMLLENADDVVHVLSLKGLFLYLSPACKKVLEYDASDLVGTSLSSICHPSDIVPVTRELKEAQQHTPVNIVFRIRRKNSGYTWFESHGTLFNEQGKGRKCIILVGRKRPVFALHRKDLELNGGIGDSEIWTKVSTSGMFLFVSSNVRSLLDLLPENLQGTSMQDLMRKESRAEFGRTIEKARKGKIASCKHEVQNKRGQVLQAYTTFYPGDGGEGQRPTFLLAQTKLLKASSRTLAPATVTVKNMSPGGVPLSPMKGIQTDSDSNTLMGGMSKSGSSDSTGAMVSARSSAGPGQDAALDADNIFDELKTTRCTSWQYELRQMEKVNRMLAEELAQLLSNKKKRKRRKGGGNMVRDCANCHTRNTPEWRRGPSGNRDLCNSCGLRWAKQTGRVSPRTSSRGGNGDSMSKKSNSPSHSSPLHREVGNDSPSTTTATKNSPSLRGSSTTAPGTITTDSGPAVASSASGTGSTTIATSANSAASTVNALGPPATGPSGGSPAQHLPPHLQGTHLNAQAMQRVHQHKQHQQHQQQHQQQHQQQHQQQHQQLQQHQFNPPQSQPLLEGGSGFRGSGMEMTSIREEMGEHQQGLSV

Columns and labels:
[1] = target: T1, FRQ Δ107–148, V5H6-tagged (Neurospora crassa) (UniProt P19970); experiment: co-IP; V5H6-tagged FRQ (wild type or mutant) pulled down with V5 agarose from Neurospora lysate (cultures in the light, 25 °C); 50 mM Hepes pH 7.4, 137 mM NaCl, 10% glycerol, 0.4% NP-40; 4 °C, 2 h; Western blot with FRQ, FRH, WC-1 and WC-2 antibodies
T1 sequence: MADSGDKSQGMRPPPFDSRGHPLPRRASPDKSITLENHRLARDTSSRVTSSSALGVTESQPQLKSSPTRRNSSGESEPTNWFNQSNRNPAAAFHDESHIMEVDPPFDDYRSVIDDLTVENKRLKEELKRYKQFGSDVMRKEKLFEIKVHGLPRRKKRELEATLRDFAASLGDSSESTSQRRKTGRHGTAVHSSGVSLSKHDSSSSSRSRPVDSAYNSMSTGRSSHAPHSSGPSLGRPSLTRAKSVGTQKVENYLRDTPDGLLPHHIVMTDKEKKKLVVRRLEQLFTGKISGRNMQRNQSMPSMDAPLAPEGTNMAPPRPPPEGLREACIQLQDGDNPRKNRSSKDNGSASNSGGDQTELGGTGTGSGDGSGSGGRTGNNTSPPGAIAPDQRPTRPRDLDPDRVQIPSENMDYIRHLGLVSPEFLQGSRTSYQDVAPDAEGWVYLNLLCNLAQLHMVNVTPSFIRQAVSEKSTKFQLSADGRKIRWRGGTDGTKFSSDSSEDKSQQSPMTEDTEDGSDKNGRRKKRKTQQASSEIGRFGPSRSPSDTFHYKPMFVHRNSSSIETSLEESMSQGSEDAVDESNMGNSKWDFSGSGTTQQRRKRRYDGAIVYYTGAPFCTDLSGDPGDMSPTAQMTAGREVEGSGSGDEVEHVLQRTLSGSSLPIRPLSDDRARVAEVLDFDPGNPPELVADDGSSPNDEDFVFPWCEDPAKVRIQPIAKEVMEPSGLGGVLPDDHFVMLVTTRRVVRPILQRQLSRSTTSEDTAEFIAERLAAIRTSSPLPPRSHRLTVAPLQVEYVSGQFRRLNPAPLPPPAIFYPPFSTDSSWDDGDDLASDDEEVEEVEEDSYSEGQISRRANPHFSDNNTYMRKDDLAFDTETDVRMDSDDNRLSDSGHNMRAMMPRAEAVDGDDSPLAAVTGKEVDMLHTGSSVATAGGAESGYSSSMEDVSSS

[2] = target: T2, FRQ D874A, D875A, E876A, E877A, E879A, E880A, E882A, E883A, D884A, V5H6-tagged (Neurospora crassa) (UniProt P19970); experiment: as above
T2 sequence: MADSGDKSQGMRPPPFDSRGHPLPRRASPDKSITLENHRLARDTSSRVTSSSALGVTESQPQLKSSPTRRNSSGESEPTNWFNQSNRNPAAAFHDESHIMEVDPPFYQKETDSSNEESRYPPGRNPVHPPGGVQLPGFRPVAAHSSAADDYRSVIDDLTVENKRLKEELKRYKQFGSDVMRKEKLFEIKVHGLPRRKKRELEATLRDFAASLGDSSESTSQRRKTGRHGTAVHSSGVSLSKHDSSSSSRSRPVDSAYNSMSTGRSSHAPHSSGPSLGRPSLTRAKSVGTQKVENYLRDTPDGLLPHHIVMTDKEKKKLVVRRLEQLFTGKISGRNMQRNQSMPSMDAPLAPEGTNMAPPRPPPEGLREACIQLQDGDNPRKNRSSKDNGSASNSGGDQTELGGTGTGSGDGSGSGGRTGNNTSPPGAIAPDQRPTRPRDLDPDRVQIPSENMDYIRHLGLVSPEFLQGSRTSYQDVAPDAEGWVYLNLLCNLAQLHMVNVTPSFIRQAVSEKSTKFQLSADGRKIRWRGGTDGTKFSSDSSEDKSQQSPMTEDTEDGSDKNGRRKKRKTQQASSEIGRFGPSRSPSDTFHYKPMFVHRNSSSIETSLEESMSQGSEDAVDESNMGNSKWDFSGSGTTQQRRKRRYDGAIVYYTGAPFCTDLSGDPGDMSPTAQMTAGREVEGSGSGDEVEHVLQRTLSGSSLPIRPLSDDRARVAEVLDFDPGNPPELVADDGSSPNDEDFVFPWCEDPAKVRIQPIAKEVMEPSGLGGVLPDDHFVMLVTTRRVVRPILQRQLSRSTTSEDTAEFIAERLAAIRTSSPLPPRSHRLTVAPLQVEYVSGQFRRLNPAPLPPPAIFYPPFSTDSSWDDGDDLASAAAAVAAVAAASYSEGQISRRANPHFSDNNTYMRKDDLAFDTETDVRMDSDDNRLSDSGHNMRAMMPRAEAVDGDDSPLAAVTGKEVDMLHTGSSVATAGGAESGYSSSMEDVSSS

- binding [1]: binds weakly
- binding [2]: binds weakly
Substance: White Collar-1 (WC-1) (from UniProt Q01371 1-1167)
